{
  "source": "the BET-seq Pho4 binding data (Le et al. 2018)",
  "note": "The list shows a part of the results. Values were computed here from the reads of four pooled replicates and scatter widely.",
  "data": [
    {"target": "T1, Pho4 (S. cerevisiae) (UniProt P07270)", "T1 sequence": "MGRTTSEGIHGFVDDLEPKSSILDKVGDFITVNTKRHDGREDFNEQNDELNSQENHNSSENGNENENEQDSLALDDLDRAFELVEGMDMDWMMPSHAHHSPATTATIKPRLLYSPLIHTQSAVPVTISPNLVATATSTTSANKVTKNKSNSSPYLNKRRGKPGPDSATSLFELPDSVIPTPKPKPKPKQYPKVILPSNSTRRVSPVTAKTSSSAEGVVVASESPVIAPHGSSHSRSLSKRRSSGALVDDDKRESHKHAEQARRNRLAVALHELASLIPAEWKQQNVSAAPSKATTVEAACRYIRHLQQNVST", "test": "relative binding free energy (BET-seq); higher = weaker binding", "conditions": "reference: library average", "units": {"relative binding free energy": "kcal/mol"}, "values": [
      {"sequence": "AATGGCACGTGCTGTG", "relative binding free energy": -0.18},
      {"sequence": "CGTAGCACGTGGTCAT", "relative binding free energy": 0.02},
      {"sequence": "AGCGACACGTGTGGTA", "relative binding free energy": -0.01},
      {"sequence": "TGTGACACGTGTGTGC", "relative binding free energy": -0.05},
      {"sequence": "TGTCTCACGTGGAGGC", "relative binding free energy": 0.22},
      {"sequence": "ATTTACACGTGTTTGG", "relative binding free energy": 0.06},
      {"sequence": "ACTGGCACGTGTAGTA", "relative binding free energy": 0.01},
      {"sequence": "GTGGTCACGTGGAGAG", "relative binding free energy": 0.15},
      {"sequence": "GGGGCCACGTGATGTA", "relative binding free energy": 0.09},
      {"sequence": "GTATCCACGTGCTTGT", "relative binding free energy": 0.23},
      {"sequence": "AATTTCACGTGAAGGT", "relative binding free energy": 0.2},
      {"sequence": "GTGATCACGTGGATCT", "relative binding free energy": 0.09},
      {"sequence": "ATTAGCACGTGTGGGT", "relative binding free energy": -0.01},
      {"sequence": "GGTAGCACGTGGCAGC", "relative binding free energy": -0.12},
      {"sequence": "GGTTTCACGTGCTTAT", "relative binding free energy": 0.32},
      {"sequence": "GGGTCCACGTGGGTTT", "relative binding free energy": 0.12},
      {"sequence": "CGCTTCACGTGATGGG", "relative binding free energy": 0.19},
      {"sequence": "GCAAACACGTGTAGGG", "relative binding free energy": 0.14},
      {"sequence": "TGGTGCACGTGGATTT", "relative binding free energy": 0.11},
      {"sequence": "TATAGCACGTGTGCGA", "relative binding free energy": -0.06},
      {"sequence": "CAGTTCACGTGTTCGG", "relative binding free energy": 0.5},
      {"sequence": "AAATTCACGTGAATTG", "relative binding free energy": 0.4},
      {"sequence": "GGAGGCACGTGGTAGG", "relative binding free energy": -0.18},
      {"sequence": "GATGTCACGTGGTTAA", "relative binding free energy": 0.05},
      {"sequence": "TGTAACACGTGTGTCA", "relative binding free energy": 0.09},
      {"sequence": "TGGAACACGTGAGCTG", "relative binding free energy": 0.23},
      {"sequence": "TGGTGCACGTGGGGGT", "relative binding free energy": -0.14},
      {"sequence": "TATCTCACGTGGTATA", "relative binding free energy": 0.19},
      {"sequence": "TGAGACACGTGGGTGC", "relative binding free energy": -0.06},
      {"sequence": "TTGTTCACGTGTAGTC", "relative binding free energy": 0.16},
      {"sequence": "ATCGGCACGTGGGGAA", "relative binding free energy": -0.08},
      {"sequence": "AGGGGCACGTGCGCTT", "relative binding free energy": -0.26},
      {"sequence": "GAGACCACGTGGTTGT", "relative binding free energy": -0.01},
      {"sequence": "TTAGTCACGTGTTATG", "relative binding free energy": 0.23},
      {"sequence": "AGCGCCACGTGGGGTT", "relative binding free energy": -0.33},
      {"sequence": "TATGGCACGTGTGGGC", "relative binding free energy": -0.08},
      {"sequence": "AGGGACACGTGGAGAT", "relative binding free energy": -0.04},
      {"sequence": "GTATTCACGTGGAGTC", "relative binding free energy": 0.25},
      {"sequence": "TGTATCACGTGGTGGA", "relative binding free energy": 0.09},
      {"sequence": "CTTTTCACGTGTGTGG", "relative binding free energy": 0.2},
      {"sequence": "CGTGTCACGTGAAGTA", "relative binding free energy": 0.25},
      {"sequence": "TGAGGCACGTGGCTCG", "relative binding free energy": -0.15},
      {"sequence": "GGTGTCACGTGTTTGG", "relative binding free energy": 0.24},
      {"sequence": "GAAGTCACGTGTTGGC", "relative binding free energy": 0.27},
      {"sequence": "TGGGTCACGTGTTCTG", "relative binding free energy": 0.19},
      {"sequence": "TTTTTCACGTGGTGAG", "relative binding free energy": 0.2},
      {"sequence": "AATGACACGTGGTGGG", "relative binding free energy": 0.02},
      {"sequence": "GTGAACACGTGGGGTA", "relative binding free energy": -0.22},
      {"sequence": "TTGGCCACGTGCGTGT", "relative binding free energy": -0.23},
      {"sequence": "GTTGTCACGTGATTAG", "relative binding free energy": 0.21},
      {"sequence": "CTATTCACGTGATTTA", "relative binding free energy": 0.35},
      {"sequence": "TTGATCACGTGCATTT", "relative binding free energy": 0.23},
      {"sequence": "AGGATCACGTGTTCGT", "relative binding free energy": 0.07},
      {"sequence": "TTAGTCACGTGAGGAC", "relative binding free energy": 0.29},
      {"sequence": "CGTCGCACGTGATGTG", "relative binding free energy": 0.15},
      {"sequence": "ATAGGCACGTGGCCGG", "relative binding free energy": -0.17},
      {"sequence": "AGTGACACGTGGAGGT", "relative binding free energy": -0.09},
      {"sequence": "AGAAGCACGTGGGTGA", "relative binding free energy": -0.23},
      {"sequence": "GTTTGCACGTGTGGTT", "relative binding free energy": 0.18},
      {"sequence": "TTGTGCACGTGGGCAG", "relative binding free energy": -0.17},
      {"sequence": "GGATTCACGTGGGCGG", "relative binding free energy": 0.32},
      {"sequence": "GGCGGCACGTGGAGAG", "relative binding free energy": 0.11},
      {"sequence": "TTTGACACGTGGACTT", "relative binding free energy": -0.03},
      {"sequence": "AGAAGCACGTGGACGG", "relative binding free energy": 0.04},
      {"sequence": "AGAAACACGTGGTGGT", "relative binding free energy": -0.05},
      {"sequence": "TTAGACACGTGTGAAT", "relative binding free energy": 0.06},
      {"sequence": "TTATGCACGTGGAGAG", "relative binding free energy": -0.03},
      {"sequence": "GGGTACACGTGTCTTG", "relative binding free energy": 0.11},
      {"sequence": "AAGGCCACGTGAGTGG", "relative binding free energy": 0.04},
      {"sequence": "CAGTCCACGTGGTGGG", "relative binding free energy": -0.01},
      {"sequence": "TAAATCACGTGAAGGT", "relative binding free energy": 0.3},
      {"sequence": "CTAGTCACGTGGATGT", "relative binding free energy": 0.23},
      {"sequence": "ATGTGCACGTGTGTCA", "relative binding free energy": -0.06},
      {"sequence": "TTTCACACGTGGGAAT", "relative binding free energy": 0.17},
      {"sequence": "GGAGCCACGTGAGGGA", "relative binding free energy": 0.17},
      {"sequence": "TAGTCCACGTGCGGGG", "relative binding free energy": 0.13},
      {"sequence": "GGGTGCACGTGAAATG", "relative binding free energy": 0.25},
      {"sequence": "ACTGGCACGTGGCGAG", "relative binding free energy": -0.18},
      {"sequence": "TAGTACACGTGTGGAA", "relative binding free energy": 0.14},
      {"sequence": "CGGGTCACGTGCTATT", "relative binding free energy": 0.21},
      {"sequence": "TAGTTCACGTGCAGGA", "relative binding free energy": 0.2},
      {"sequence": "ATAGGCACGTGTAGTG", "relative binding free energy": -0.04},
      {"sequence": "TGAGGCACGTGTGATA", "relative binding free energy": -0.02},
      {"sequence": "TAGTTCACGTGTCGAG", "relative binding free energy": 0.32},
      {"sequence": "TAAATCACGTGTTGTG", "relative binding free energy": 0.15},
      {"sequence": "GGTTGCACGTGAAACG", "relative binding free energy": 0.25},
      {"sequence": "AGCTTCACGTGGGGGC", "relative binding free energy": 0.15},
      {"sequence": "ATTGTCACGTGTGCCT", "relative binding free energy": 0.02},
      {"sequence": "TAGGACACGTGAAGTT", "relative binding free energy": 0.34},
      {"sequence": "AATGGCACGTGCTTGA", "relative binding free energy": -0.11},
      {"sequence": "TTGTCCACGTGATGGA", "relative binding free energy": 0.23},
      {"sequence": "AACGGCACGTGCAGGG", "relative binding free energy": -0.13},
      {"sequence": "GTTTGCACGTGATCTT", "relative binding free energy": 0.15},
      {"sequence": "GGCAGCACGTGGCTGG", "relative binding free energy": -0.16},
      {"sequence": "TGCTGCACGTGGGTTC", "relative binding free energy": -0.09},
      {"sequence": "GAGATCACGTGATTTA", "relative binding free energy": 0.47},
      {"sequence": "GGGTGCACGTGTTGCA", "relative binding free energy": 0.05},
      {"sequence": "GGTGACACGTGAGGGT", "relative binding free energy": 0.22},
      {"sequence": "GATTTCACGTGGCGGT", "relative binding free energy": 0.33},
      {"sequence": "AGTAACACGTGTATAG", "relative binding free energy": 0.04},
      {"sequence": "TGGTCCACGTGGGTAG", "relative binding free energy": -0.07},
      {"sequence": "GGTGGCACGTGATTTA", "relative binding free energy": 0.18},
      {"sequence": "TAGGGCACGTGATAGT", "relative binding free energy": -0.07},
      {"sequence": "CTGGTCACGTGTTAGA", "relative binding free energy": 0.11},
      {"sequence": "GAGAGCACGTGGGGGC", "relative binding free energy": -0.19},
      {"sequence": "CGATTCACGTGGCGGG", "relative binding free energy": 0.2},
      {"sequence": "CGTTTCACGTGATGAA", "relative binding free energy": 0.25},
      {"sequence": "TAGGCCACGTGTGTTG", "relative binding free energy": -0.01},
      {"sequence": "AATTGCACGTGAGCGG", "relative binding free energy": 0.02},
      {"sequence": "GGGTGCACGTGGGGTT", "relative binding free energy": -0.08},
      {"sequence": "GGTTTCACGTGGGATC", "relative binding free energy": 0.34},
      {"sequence": "CCGGTCACGTGGGTTT", "relative binding free energy": -0.01},
      {"sequence": "TGTGCCACGTGGGTTT", "relative binding free energy": -0.14},
      {"sequence": "CTGGGCACGTGCGGTG", "relative binding free energy": -0.11},
      {"sequence": "GATCTCACGTGGTGTA", "relative binding free energy": 0.28}
    ]}
  ]
}
